This note sets out measurements from PubChem BioAssay AID1508642 (National Center for Advancing Translational Sciences (NCATS), 2021).

The structures appear in SMILES notation. Screen size: about 43,000 compounds; about 200 (0.47%) were called active. Roughly 12% stayed inconclusive and do not appear here. Calls follow the shape of the dose curve; as a rule, active = well fitted cell-killing curve with a large enough effect; inconclusive = small, poorly fitted or top-dose-only effect, or effect the other way; inactive = flat fitted curve, though single readings scatter. The list shows a part of the results.
% is scaled to controls: 0 for no effect and ±100 for the full control effect.

A short description of this assay: Cell viability qHTS assay in S16 Pmp22-F2sN cells. Also: nearly all actives have a fitted effect of over 65% in size. The settings on record: S16 Pmp22-F2sN Schwann cells (luciferase reporters placed in the Pmp22 gene) viability, CellTiter-Glo, 24 h; series mostly up to 57.5 µM; activity change, negative = cytotoxicity: at the top concentration. The method, boiled down: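 CellTiter-Glo counter-screen, qHTS, 1536-well. Cells: S16(c9) Pmp22-F2sN, 500-1,000/well in DMEM + 10% FBS. Cpd 23 nL pin transfer, 24 h, 37C/5% CO2. Read: luminescence, CCD imager.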
In the case of `Cc1cc(C)cc(-n2ccn(CC(=O)Nc3ccccc3C(F)(F)F)c(=O)c2=O)c1`, the “activity change, negative = cytotoxicity” value was inactive: -1.88%.
Under `CCN(c1ccccc1)c1nnc(NC(=O)Nc2cccc(Br)c2)s1` stands inactive: -0.966%; under `Cc1ccc(N2CC(C)Cn3c2nc2c3c(=O)n(CC(=O)O)c(=O)n2C)cc1` (stereo not drawn), inactive: 0.032%; under `COc1ccc(N2CCN(C(=O)c3ccc(CS(=O)(=O)c4ccc(Br)cc4)o3)CC2)cc1`, inactive: 12.4%.
Regarding `Cc1nc(N2CCCC2)c2c(C(=O)N3CCN(c4cccc(Cl)c4)CC3)c(C)oc2n1`, the “activity change, negative = cytotoxicity” value was inactive: 0.489%.
Under `CCOc1ccc(C2c3c(oc4ccc(C)cc4c3=O)C(=O)N2Cc2ccc3c(c2)OCO3)cc1OC` (stereo not drawn) stands inactive: -4.74%.
For the compound `Cc1ccc(CNC(=O)c2ccc(CSCc3ccc(C)cc3)o2)cc1`, the “activity change, negative = cytotoxicity” value was inactive: 2.99%.
With `CCN(c1ccc(OC)cc1)S(=O)(=O)c1nnc(NC(=O)c2ccccc2Cl)s1`, the “activity change, negative = cytotoxicity” value was inactive: -0.0164%.
Under `Cc1c(C(=O)NCc2ccccc2)sc2nc3n(c(=O)c12)CCC3` stands inactive: 2.12%.
Under `CCCOC(=O)c1ccc(NC(=O)Cc2csc(C)n2)cc1` stands inactive: 0.949%; under `COCC(=O)N1c2nc(C(C)C)nn2C2(CCCCC2)[C@@H]2CCCC[C@@H]21`, inactive: -2.26%.
With `CSc1nc2sc3c(c2c(=O)n1-c1ccccc1C)CCCC3`, the “activity change, negative = cytotoxicity” value was inactive: 0.0627%.
Under `Cc1cccc(N2C(=O)CSC23C(=O)N(Cc2cccc(C(F)(F)F)c2)c2ccccc23)c1` (stereo not drawn) stands inactive: -9.03%; under `CCC(=O)N1CCc2cc(Br)cc(S(=O)(=O)NCc3ccc(Cl)cc3)c21`, inactive: 19%.
Under `CCCN1CCN(CCCNC(=O)c2cnn(-c3ccc(F)cc3)c2-n2cccc2)CC1` stands inactive: 11.1%; under `CCOc1ccc(Nc2nc3ccccc3n3c(CC)nnc23)cc1`, inactive: 4.54%; under `O=C(Cn1c(=O)n(-c2ccccc2)c(=O)c2sc3ccccc3c21)N1CCCC1`, inactive: 1.75%.
Under `CCCc1nnc(NC(=O)Cc2coc3cc(C)cc(C)c23)s1` stands inactive: -3.72%; under `Cc1ccc(C(=O)N2CCc3cc(CNC(=O)COc4ccccc4)ccc32)cc1`, inactive: 2.71%; under `COc1ccc(-c2nn3c(=O)cc(CN4CCN(C(=O)Nc5ccc(C)c(Cl)c5)CC4)nc3s2)cc1`, inactive: 15.4%.
Turning to `COc1ccc(CCNC(=O)c2nnc(Cc3ccc(Cl)cc3)o2)cc1OC`, the “activity change, negative = cytotoxicity” value was inactive: 6.05%.
Regarding `O=C(NCC(c1ccco1)S(=O)(=O)c1ccc(Cl)cc1)c1ccccc1F` (stereo not drawn), the “activity change, negative = cytotoxicity” value is inactive: -23.5%.
Under `Cc1ccc2oc(=O)c3cnn(CC(=O)Nc4cccc(C(F)(F)F)c4)c3c2c1` stands inactive: -0.207%; under `O=[N+]([O-])c1cc(-c2nc(-c3cccnc3)no2)ccc1NCc1ccccc1`, inactive: 1.39%; under `CC(C)c1ccc(NC(=O)CN2C(=O)COc3ccc(S(=O)(=O)Nc4ccccc4)cc32)cc1`, inactive: 3.3%.
Under `O=C(Nc1ccc(Br)cc1)C1CCN(S(=O)(=O)c2cccc3nsnc23)CC1` stands inactive: 12.3%.
Under `CC(C)OCCCNC(=O)CCCn1c(SCC(=O)c2ccc(F)cc2)nc2c(sc3ccccc32)c1=O` stands inactive: 22%; under `CCCCc1nc2ccccc2n2c(-c3ccc(C)cc3)c3c(=O)n(C)c(=O)n(C)c3c12`, inactive: 7.7%; under `COCCCNC(=O)c1cc2c(=O)n3cccc(C)c3nc2s1`, inactive: 2.45%.
On to `Cc1c(C)n(Cc2ccc(Cl)cc2)c2ccc(C(=O)NCCc3ccc(S(N)(=O)=O)cc3)cc12`, for which the “activity change, negative = cytotoxicity” value is inactive: -7.69%.
As to `Cc1cc(N2CCCCC2)nc2ccc(NC(=O)c3cccc(F)c3)cc12`, the “activity change, negative = cytotoxicity” value is inactive: -20.5%.
Regarding `CSc1cccc(NC(=O)CN(c2ccccc2)S(=O)(=O)N(C)C)c1`, the “activity change, negative = cytotoxicity” value was inactive: 5.01%.
Under `CC1CCN(S(=O)(=O)c2ccc3c(c2)N(CC(=O)NC(C)c2ccccc2)C(=O)CO3)CC1` (stereo not drawn) stands inactive: -1.75%; under `CCCCN(C)S(=O)(=O)c1cc(-c2nnc3c4ccccc4c(C)nn23)ccc1C`, inactive: -9.34%.
`CN(C)c1ccc(NC(=O)CCSc2nc(-c3ccco3)cc(C(F)(F)F)n2)cc1`: the “activity change, negative = cytotoxicity” value is inactive: -21.7%.
Under `CCOc1ccc(-n2c(=O)c3c(C)c(C)sc3n(CC(=O)c3ccccc3)c2=O)cc1` stands inactive: -6.58%; under `CCN(CC)CCCNC(=O)c1c(C)oc2ncn(CC(C)C)c(=O)c12`, inactive: 2.2%; under `COc1cc(Br)c(C2CC(=O)Nc3cc(OC)c(OC)c(OC)c32)cc1OC` (stereo not drawn), inactive: 13%.
Under `CCc1ccccc1NC(=O)Cn1ncc2c(C)n(Cc3ccccc3F)c(C)c2c1=O` stands inactive: 0.106%; under `CC(C)CNC(=O)CCSc1nc(-c2ccc3c(c2)OCO3)cc(C(F)(F)F)n1`, inactive: 3.24%; under `Cc1oc(-c2cccc(Br)c2)nc1CN1CCC(C(=O)NCCc2ccc(Cl)cc2)CC1`, inactive: 6.88%.
Under `CCOC(=O)c1ccc(N2C(=O)c3n[nH]c(-c4cccs4)c3C2c2cccc(F)c2)cc1` (stereo not drawn) stands inactive: -17.2%.
`CCOc1ccccc1NC(=O)C(CC(C)C)NS(=O)(=O)c1ccc2c(c1)CCN2C(C)=O` (stereo not drawn): the “activity change, negative = cytotoxicity” value was inactive: -2.88%.
Under `O=C(Cn1c(=O)n(Cc2nc(-c3ccccc3)no2)c(=O)c2cc3c(cc21)OCO3)Nc1ccc(Cl)cc1` stands inactive: 10.6%; under `Cc1ccc(C)c(N2CCN(c3ccc(NC(=O)c4cccs4)cc3C(=O)O)CC2)c1`, inactive: 22.2%; under `CCC(=O)N1N=C(c2ccc(OC)cc2)CC1c1cn(-c2ccccc2)nc1-c1cccs1` (stereo not drawn), inactive: 16.1%.
As for `O=C(c1cc(-c2ccc(Br)cc2)n[nH]1)N1CCN(S(=O)(=O)c2ccc(Br)cc2)CC1`, the “activity change, negative = cytotoxicity” value is inactive: -6.13%.
As to `COC(=O)CSc1nc2c(cnn2-c2ccc(F)cc2)c(=O)[nH]1`, the “activity change, negative = cytotoxicity” value is inactive: -2.55%.
